By IC50 is meant the dose at which the fit gives 50% viability; where the fit passes the top or lowest dose, that dose stands as a limit. AUC, from the same fit, is the share of area under the viability curve across the 256-fold dose range; it is 1 without any effect and falls as sensitivity rises. Any top dose called inferred comes from the curve model; the source does not state it.
compound: Cc1ccc(-c2c(C(=O)CF)n(CCCO)c3ncnc(N)c23)cc1 [FMK]; assay: Viability of human cancer cell lines after 72 h of drug (GDSC screen); settings: top dose inferred
Experimental: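 Human cancer cell lines in 384-well plates, medium with 10% serum, drug for 72 h over a 256-fold dose range (nine 2-fold or five 4-fold steps up to the top dose). Adherent lines were fixed and stained with the nucleic acid dye Syto60, suspension lines read with resazurin; signal relative to control wells, capped at 0 and 100%. One two-parameter sigmoid per drug and line, fitted in a mixed model over all curves with the slope shared within a line.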

Cell Line | AUC | IC50 [µM]
NCI-H1395 (lung adenocarcinoma, adherent, top dose 20 µM) | 0.97 | > 20
NCI-H1417 (small cell lung carcinoma, suspension, top dose 20 µM) | 0.979 | > 20
NCI-H1435 (lung adenocarcinoma, semi-adherent, top dose 20 µM) | 0.988 | > 20
NCI-H1436 (small cell lung carcinoma, suspension, top dose 20 µM) | 0.959 | > 20
NCI-H1437 (lung adenocarcinoma, adherent, top dose 20 µM) | 0.974 | > 20
NCI-H1563 (lung adenocarcinoma, adherent, top dose 20 µM) | 0.964 | > 20
NCI-H1568 (lung adenocarcinoma, adherent, top dose 20 µM) | 0.963 | > 20
NCI-H1573 (lung adenocarcinoma, adherent, top dose 20 µM) | 0.988 | > 20
NCI-H1581 (large cell lung carcinoma, semi-adherent, top dose 20 µM) | 0.988 | > 20
NCI-H1623 (lung adenocarcinoma, adherent, top dose 20 µM) | 0.985 | > 20
NCI-H1648 (lung adenocarcinoma, adherent, top dose 20 µM) | 0.977 | > 20
NCI-H1651 (lung adenocarcinoma, adherent, top dose 20 µM) | 0.987 | > 20
NCI-H1666 (lung adenocarcinoma, semi-adherent, top dose 20 µM) | 0.979 | > 20
NCI-H1688 (small cell lung carcinoma, adherent, top dose 20 µM) | 0.987 | > 20
NCI-H1693 (lung adenocarcinoma, adherent, top dose 20 µM) | 0.962 | > 20
NCI-H1694 (small cell lung carcinoma, suspension, top dose 20 µM) | 0.953 | > 20
NCI-H1703 (lung adenocarcinoma, adherent, top dose 20 µM) | 0.972 | > 20
NCI-H1734 (lung adenocarcinoma, adherent, top dose 20 µM) | 0.964 | > 20
NCI-H1755 (lung adenocarcinoma, adherent, top dose 20 µM) | 0.957 | > 20

Cell Line | AUC | IC50 [µM]
NCI-H1770 (non-small cell lung carcinoma, suspension, top dose 20 µM) | 0.992 | > 20
NCI-H1781 (lung adenocarcinoma, adherent, top dose 20 µM) | 0.963 | > 20
NCI-H1792 (lung adenocarcinoma, adherent, top dose 20 µM) | 0.925 | > 20
NCI-H1793 (lung adenocarcinoma, adherent, top dose 20 µM) | 0.982 | > 20
NCI-H1836 (small cell lung carcinoma, suspension, top dose 20 µM) | 0.945 | > 20
NCI-H1838 (lung adenocarcinoma, adherent, top dose 20 µM) | 0.965 | > 20
NCI-H1869 (lung squamous cell carcinoma, adherent, top dose 20 µM) | 0.967 | > 20
NCI-H1876 (small cell lung carcinoma, adherent, top dose 20 µM) | 0.98 | > 20
NCI-H1915 (large cell lung carcinoma, adherent, top dose 20 µM) | 0.964 | > 20
NCI-H1944 (lung adenocarcinoma, adherent, top dose 20 µM) | 0.925 | > 20
NCI-H1975 (lung adenocarcinoma, adherent, top dose 20 µM) | 0.95 | > 20
NCI-H1993 (lung adenocarcinoma, adherent, top dose 20 µM) | 0.977 | > 20
NCI-H2009 (lung adenocarcinoma, adherent, top dose 20 µM) | 0.987 | > 20
NCI-H2023 (lung adenocarcinoma, adherent, top dose 20 µM) | 0.969 | > 20
NCI-H2029 (small cell lung carcinoma, adherent, top dose 20 µM) | 0.992 | > 20
NCI-H2030 (lung adenocarcinoma, adherent, top dose 20 µM) | 0.955 | > 20
NCI-H2081 (small cell lung carcinoma, suspension, top dose 20 µM) | 0.977 | > 20
NCI-H2085 (lung adenocarcinoma, adherent, top dose 20 µM) | 0.979 | > 20
